Source: PubChem BioAssay AID588453 (National Center for Advancing Translational Sciences (NCATS), 2011)
Where “and” joins values, the source holds several entries; their conditions need not be identical. Identical values can stand only once. Among all 390,000 compounds or so, about 4,000 (1%) were called active. Inconclusive results, whose numbers are uncertain, are shown with a selection of clear calls. Calls come from the whole dose curve; as a rule, active = well fitted inhibition curve with a large enough effect; inconclusive = small, poorly fitted or top-dose-only effect; inactive = no such curve, though single readings can be large or run the other way. A potency beside an inconclusive call is a rough fit, not a confirmed value.

Biological target: Thioredoxin reductase 1, cytoplasmic (Rattus norvegicus) (UniProt O89049)
Sequence of UniProt O89049 (O89049 whole entry, looked up): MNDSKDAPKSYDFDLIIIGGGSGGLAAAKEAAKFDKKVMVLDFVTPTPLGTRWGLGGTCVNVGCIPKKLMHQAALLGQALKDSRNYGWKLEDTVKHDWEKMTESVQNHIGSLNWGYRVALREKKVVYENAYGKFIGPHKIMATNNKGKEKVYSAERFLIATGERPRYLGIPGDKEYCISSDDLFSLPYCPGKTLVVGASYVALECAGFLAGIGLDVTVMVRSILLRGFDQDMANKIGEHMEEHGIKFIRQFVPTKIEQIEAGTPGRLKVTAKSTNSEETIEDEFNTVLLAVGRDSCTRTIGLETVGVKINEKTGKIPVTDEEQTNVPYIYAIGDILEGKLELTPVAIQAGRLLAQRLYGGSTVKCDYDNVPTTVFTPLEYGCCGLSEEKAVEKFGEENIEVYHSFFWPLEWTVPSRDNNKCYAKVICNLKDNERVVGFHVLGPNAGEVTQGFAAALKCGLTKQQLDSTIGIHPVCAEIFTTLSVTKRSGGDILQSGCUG
Experiment: qHTS Assay for Inhibitors of Mammalian Selenoprotein Thioredoxin Reductase 1 (TrxR1): qHTS; note: nearly all actives have a fitted effect of over 65% in size
Details: recombinant rTrxR1, NADPH fluorescence consumption, selenite substrate; series mostly up to 114 µM
How it was run: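 Rat TrxR1 (90 nM in the dispensed reagent) was pre-reduced with 400 uM NADPH for 5 min at room temperature, then incubated with compound for 15 min. After 400 uM selenite was added, NADPH fluorescence (Ex 340/Em 450 nm) was followed for 8 min.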
% is set by controls: 0 for no effect and ±100 for the full control effect; potency is the fitted concentration of half-maximal effect; tags give direction and shape of the fitted curve.

Q: `CN1C(=O)C(=Cc2ccccc2Oc2ccc(Cl)cc2)C(=O)N(C)C1=O` was tested. Which Potency did it give?
A: inconclusive: 14.1 µM [inhibitor, partial curve, poor fit]

Q: `Cc1ccc(C(C)C)c(OCC(=O)N2CCN(CCc3ccncc3)CC2)c1` was tested. Which Potency did it give?
A: inconclusive: 14.1 µM [inhibitor, full curve]

Q: `O=C1NC(=O)N(c2ccc(Cl)cc2)C(=O)/C1=C/c1coc2ccc(O)cc2c1=O` was tested. Which Potency did it give?
A: inconclusive: 20 µM [inhibitor, partial curve, poor fit]

Q: With `C/C(=N\Nc1cccc2ccccc12)c1c(O)n(Cc2ccccc2)c(=O)[nH]c1=O` as the compound, how does the Potency read?
A: active: 44.7 µM

Q: With `COc1ccc(CC2C(=O)NC(=O)N(c3ccccc3)C2=O)c(OC)c1` (stereo not drawn) as the compound, how does the Potency read?
A: inconclusive: 28.2 µM [inhibitor, partial curve, poor fit]

Q: Which Potency does the source give for `COc1cccc2c1C(=O)c1c(O)c3c(c(O)c1C2=O)C[C@@](O)(C(=O)CO)C[C@@H]3O[C@H]1C[C@H](N)[C@H](OC2CCCCO2)[C@H](C)O1` (stereo partly drawn) here?
A: inconclusive: 56.2 µM [inhibitor, partial curve, poor fit]

Q: Which Potency does the source give for `CCc1cc(=O)oc2cc(C)cc(OCC(=O)N3CCC(C(=O)O)(c4ccccc4)CC3)c12` here?
A: inconclusive: 15.8 µM [inhibitor, partial curve, poor fit]

Q: `Cc1ccc(/C=C2\C(=O)NC(=S)N(c3ccc(F)cc3)C2=O)s1` was tested. Which Potency did it give?
A: active: 10 µM

Q: `O=C(CN1CC=C(c2ccccc2)CC1)NC(=O)NC1CCCCC1` was tested. Which Potency did it give?
A: inconclusive: 89.1 µM [inhibitor, single point]

Q: How did the Potency turn out when `COc1ccc2c3c([nH]c2c1)C(C)NCC3` (stereo not drawn) was run?
A: inconclusive: 44.7 µM [inhibitor, partial curve, poor fit]

Q: With `CCNC(=S)NCCC1=c2ccccc2=N/C1=C\c1c(O)n(C)c(=O)n(C)c1=O` as the compound, how does the Potency read?
A: inconclusive: 39.8 µM [inhibitor, partial curve]

Q: Which activity change, negative = inhibition does the source give for `O=C1NC(=O)C(Cc2ccccc2)C(=O)N1` here?
A: inactive: -9.71% [at 2.29 µM]

Q: Which Potency does the source give for `CCc1cccc(CC)c1N(COC)C(=O)CCl` here?
A: inconclusive: 89.1 µM [inhibitor, single point]

Q: Which Potency does the source give for `C=CCN1C(=O)/C(=C/c2cc(C)n(-c3ccccn3)c2C)C(=O)NC1=S` here?
A: active: 50.1 µM

Q: How did the Potency turn out when `Cc1ccc(-c2[nH]c(=S)[nH]c(=O)c2C#N)cc1` was run?
A: inconclusive: 25.1 µM [inhibitor, partial curve, poor fit]

Q: How did the Potency turn out when `CNc1ccc2oc(C[C@H]3O[C@@]4(CC[C@H]3C)O[C@H]([C@H](C)C(=O)c3ccc[nH]3)[C@H](C)C[C@H]4C)nc2c1C(=O)O` was run?
A: inactive

Q: With `COc1ccc2c(c[n+](C)c3c4cc5c(cc4ccc23)OCO5)c1OC` as the compound, how does the Potency read?
A: inconclusive: 18.9 µM [inhibitor, partial curve, poor fit] and inconclusive: 39.8 µM [inhibitor, partial curve, poor fit]

Q: Which Potency does the source give for `COc1cc(N2CCOCC2)ccc1/C=C1\C(=O)NC(=O)N(C2CCCCC2)C1=O` here?
A: inconclusive: 50.1 µM [inhibitor, partial curve]

Q: With `c1ccc2c(c1)[I+]c1ccccc1-2` as the compound, how does the Potency read?
A: inconclusive: 28.2 µM [inhibitor, partial curve] and inconclusive: 17.8 µM [inhibitor, partial curve] and inconclusive: 11.2 µM [inhibitor, partial curve]

Q: With `O=[N+]([O-])c1cc(C(F)(F)F)c(Cl)c([N+](=O)[O-])c1Nc1ncc(C(F)(F)F)cc1Cl` as the compound, how does the Potency read?
A: inconclusive: 25.1 µM [inhibitor, partial curve]

Q: Which Potency does the source give for `COc1ccc(NC(=O)CSc2oc(-c3cccs3)nc2S(=O)(=O)c2ccccc2)c(OC)c1` here?
A: inconclusive: 89.1 µM [inhibitor, single point]

Q: Which Potency does the source give for `O=C1C(=Cc2ccccc2)N2CCC1CC2` here?
A: inconclusive: 50.1 µM [inhibitor, single point]

Q: How did the Potency turn out when `Cc1ccc(-c2n[nH]c(=S)n2-c2ccccc2)cc1` was run?
A: inconclusive: 31.6 µM [inhibitor, partial curve, poor fit]

Q: `COc1cccc(N2C(=O)NC(=O)/C(=C/c3ccc([N+](=O)[O-])s3)C2=O)c1` was tested. Which Potency did it give?
A: inconclusive: 22.4 µM [inhibitor, single point]

Q: For `Cc1c(N=Cc2c(O)n(Cc3ccco3)c(=O)[nH]c2=O)c(=O)n(-c2ccccc2)n1C`, which Potency is on record?
A: inconclusive: 89.1 µM [inhibitor, single point]

Q: `CC/C(=N\NC(=O)c1ccccc1O)c1c(O)n(Cc2ccccc2)c(=O)[nH]c1=O` was tested. Which Potency did it give?
A: inconclusive: 50.1 µM [inhibitor, partial curve]

Q: With `CCCCn1c(O)c(C(C)=NCCN2CCCCC2)c(=O)[nH]c1=O` as the compound, how does the Potency read?
A: inconclusive: 79.4 µM [inhibitor, single point]

Q: With `CCOc1ccc(-n2c(O)c(/C=C3\C=Nc4ccccc43)c(=O)[nH]c2=O)cc1` as the compound, how does the Potency read?
A: inconclusive: 70.8 µM [inhibitor, single point]

Q: For `CCCc1nc2ccccc2c(=O)n1-c1cccc(OC)c1`, which Potency is on record?
A: inactive

Q: For `CCCCn1c(=O)c(C=Nc2cccnc2Cl)c(O)n(CCCCl)c1=O`, which Potency is on record?
A: inconclusive: 56.2 µM [inhibitor, partial curve]

Q: For `Cn1c(O)c(/C=C2\N=c3ccccc3=C2CCNC(=S)NC2CC2)c(=O)n(C)c1=O`, which Potency is on record?
A: inconclusive: 20 µM [inhibitor, full curve]

Q: Which Potency does the source give for `CCN(CC)c1ccc(N=Cc2c(O)n(-c3ccccc3)c(=O)[nH]c2=O)cc1` here?
A: inactive

Q: `COc1ccc(/C=C2\C(=O)NC(=O)N(Cc3ccccc3)C2=O)c(OC)c1OC` was tested. Which Potency did it give?
A: inconclusive: 31.6 µM [inhibitor, partial curve, poor fit]

Q: Which Potency does the source give for `Cc1cccc(N2C(=O)NC(=O)C3(Cc4cc(C)ccc4N(C)C3)C2=O)c1` (stereo not drawn) here?
A: inconclusive: 3.16 µM [inhibitor, single point]

Q: With `Nc1nc2ccc(Cl)cc2c2nc(-c3ccco3)nn12` as the compound, how does the Potency read?
A: inconclusive: 63.1 µM [inhibitor, partial curve, poor fit] and inconclusive: 10.6 µM [inhibitor, partial curve]

Q: How did the Potency turn out when `O=C1NC(=O)C(=Cc2ccc3ccccc3c2)C(=O)N1` was run?
A: inconclusive: 14.1 µM [inhibitor, partial curve, poor fit]

Q: How did the Potency turn out when `COc1cc(/C=C2\C(=O)NC(=O)N(c3ccccc3)C2=O)cc(OC)c1O` was run?
A: active: 25.1 µM

Q: With `CCOc1cc(/C=C2/C(=O)NC(=O)N(c3ccc(CC)cc3)C2=O)ccc1OC(=O)c1cccs1` as the compound, how does the Potency read?
A: active: 17.8 µM

Q: How did the Potency turn out when `C[C@]12CC[C@H](O)C[C@H]1CCC1C2CC[C@]2(C)[C@@H](c3ccc(=O)oc3)C[C@H]3O[C@]132` (stereo partly drawn) was run?
A: inactive

Q: With `COc1cc(C=C2C(=O)NC(=O)NC2=O)ccc1OCc1ccc([N+](=O)[O-])cc1` as the compound, how does the Potency read?
A: inconclusive: 25.1 µM [inhibitor, partial curve]

Q: With `CCCCC12CN3CC(C)(CN(C1)C3c1ccccn1)C2=O` (stereo not drawn) as the compound, how does the Potency read?
A: inactive

Q: How did the Potency turn out when `Cc1cccc(NC(=S)NC2CC3CCC(C2)N3Cc2ccco2)c1C` (stereo not drawn) was run?
A: inconclusive: 28.2 µM [inhibitor, single point]

Q: `O=C1CCCN1CC#CCN1CCCC1` was tested. Which Potency did it give?
A: inconclusive: 37.7 µM [inhibitor, single point]

Q: With `COc1ccc(-n2c(O)c(/C=C3\C=Nc4ccc(Br)cc43)c(=O)[nH]c2=O)c(OC)c1` as the compound, how does the Potency read?
A: inconclusive: 89.1 µM [inhibitor, single point]

Q: Which Potency does the source give for `Cc1c(N=Nc2c(O)[nH]c(=S)[nH]c2=O)c(=O)n(-c2ccccc2)n1C` here?
A: inconclusive: 20 µM [inhibitor, partial curve, poor fit]

Q: `CN1CCc2nc(SCC(=O)OC(C)(C)C)c(C#N)cc2C1` was tested. Which Potency did it give?
A: inconclusive: 31.6 µM [inhibitor, partial curve, poor fit]

Q: With `Cc1cc(C(=O)CS(=O)(=O)c2ccccc2)cc(C)c1OC(=O)N(C)C` as the compound, how does the Potency read?
A: inconclusive: 56.2 µM [inhibitor, partial curve, poor fit]

Q: Which Potency does the source give for `COc1ccccc1N1CCN(Cc2ccc(Cl)cc2Cl)CC1` here?
A: inactive

Q: How did the Potency turn out when `CCOC(=O)[C@]12Cc3cc(OC)ccc3[C@H]1N(Cc1ccccc1)C(=O)c1cc(F)c(F)cc12` was run?
A: inactive

Q: With `CC(C)(C)N1C(=O)NC(=O)/C(=C\c2ccc3c(c2)CCN3CCCCl)C1=O` as the compound, how does the Potency read?
A: inconclusive: 14.1 µM [inhibitor, partial curve]

Q: How did the Potency turn out when `Cc1ccc(OCCOc2cccc(C=C3C(=O)NC(=O)NC3=O)c2)c(C)c1` was run?
A: active: 7.94 µM

Q: With `Cn1ncnc2c(=O)n(C)c(=O)nc1-2` as the compound, how does the Potency read?
A: inconclusive: 56.2 µM [inhibitor, partial curve, poor fit]

Q: How did the Potency turn out when `NC(Cc1cc(O)c(O)cc1O)C(=O)O` (stereo not drawn) was run?
A: active: 10.6 µM

Q: `O=C1NC(=O)N(CCc2ccc(F)cc2)C(=O)/C1=C/c1ccco1` was tested. Which Potency did it give?
A: inconclusive: 28.2 µM [inhibitor, partial curve]

Q: For `CCOC(=O)[C@]1(C#N)[C@@H]2C=CC(C(N)=O)=CN2[C@@H](C(N)=O)[C@@H]1c1ccc(F)cc1`, which Potency is on record?
A: inactive

Q: For `CC(=O)C1C2c3ccccc3OC1(C)N=c1s/c(=C/c3cn(C)nc3C)c(=O)n12` (stereo not drawn), which Potency is on record?
A: inconclusive: 89.1 µM [inhibitor, single point]

Q: Which Potency does the source give for `CCN(CC)c1ccc(/C=C2/C(=O)NC(=O)N(CC3CCCO3)C2=O)cc1` (stereo not drawn) here?
A: inconclusive: 44.7 µM [inhibitor, partial curve]

Q: For `C=C1C(=O)O[C@H]2[C@H]1[C@H](OC(=O)CC(=O)O[C@@H]1C[C@@H](C)[C@@H]3C=CC(=O)[C@@]3(C)[C@H]3OC(=O)C(=C)[C@H]13)C[C@@H](C)[C@H]1C=CC(=O)[C@]12C`, which Potency is on record?
A: inconclusive: 14.1 µM [inhibitor, partial curve, poor fit]
